This note sets out measurements from the supplement of paper PMC12645437, “Orthogonal IMiD-Degron Pairs Induce Selective Protein Degradation in Cells” (ACS Chemical Biology, 2025).

The other results are listed elsewhere or left out.
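Also: jurkat cells carrying a lentiviral library of mutant zinc finger degrons fused to EGFP plus mCherry, mCherry+ cells FACS sorted, degron abundance counted by next-generation sequencing.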

This assay deals with no compound (DMSO). Description: log2 fold change of degron read counts, EGFP-low vs EGFP+ sorted cells; higher = lower degron-EGFP level without compound (poor expression or instability). The note with it: compound: DMSO control; 18 h.
For the sequence FRCNQCGRAFTQKGNLLRHIKL, the “log2 fold change of degron read counts” value was -0.419.

As for FSCNVCGADFTQKGNLLRHIKL, the “log2 fold change of degron read counts” value was -2.

On to FICDVCGAPFTQKGNLLRHIKL, for which the “log2 fold change of degron read counts” value was -1.65.

Regarding FICSVCGHAFTQKGNLLRHIKL, the “log2 fold change of degron read counts” value was -0.527.

LSCNQCGFSCTQKGNLLRHIKL: the “log2 fold change of degron read counts” value came to 0.576.

With LKCNQCGFECTQKGNLLRHIKL, the “log2 fold change of degron read counts” value was -0.715.

FHCNQCGACFTQKGNLLRHIKL: the “log2 fold change of degron read counts” value was 0.862.

On to LYCPICGFPCTQKGNLLRHIKL, for which the “log2 fold change of degron read counts” value is 1.76.

With FFCEICGRWFTQKGNLLRHIKL, the “log2 fold change of degron read counts” value was 0.666.

Take LRCEICGFTCTQKGNLLRHIKL: the “log2 fold change of degron read counts” value was -0.0312.

For the sequence LICNQCGFHCTQKGNLLRHIKL, the “log2 fold change of degron read counts” value turned out to be 0.438.

For FGCPQCGAKFTQKGNLLRHIKL, the “log2 fold change of degron read counts” value was -1.39.

Regarding FVCNVCGAYFTQKGNLLRHIKL, the “log2 fold change of degron read counts” value was -0.496.

Consider FMCEICGRLFTQKGNLLRHIKL, for which the “log2 fold change of degron read counts” value was -0.514.

Consider FNCPQCGAKFTQKGNLLRHIKL, for which the “log2 fold change of degron read counts” value was -1.36.

For the sequence FDCSVCGHVFTQKGNLLRHIKL, the “log2 fold change of degron read counts” value came out at 0.378.

Turning to FICEICGAYFTQKGNLLRHIKL, the “log2 fold change of degron read counts” value was -0.641.

As for FFCPVCGARFTQKGNLLRHIKL, the “log2 fold change of degron read counts” value came out at 0.624.

As for FDCDQCGAVFTQKGNLLRHIKL, the “log2 fold change of degron read counts” value was -1.39.

FKCNQCGHLFTQKGNLLRHIKL: the “log2 fold change of degron read counts” value is -0.844.

For the sequence LSCPICGFKCTQKGNLLRHIKL, the “log2 fold change of degron read counts” value amounted to 0.852.

In the case of FWCEICGHCFTQKGNLLRHIKL, the “log2 fold change of degron read counts” value stood at 0.429.

As for FICPQCGAAFTQKGNLLRHIKL, the “log2 fold change of degron read counts” value is -0.861.

In the case of FLCEVCGAYFTQKGNLLRHIKL, the “log2 fold change of degron read counts” value is -1.44.

FFCNQCGHVFTQKGNLLRHIKL: the “log2 fold change of degron read counts” value turned out to be 0.508.

As to FLCNVCGAEFTQKGNLLRHIKL, the “log2 fold change of degron read counts” value came out at 0.611.

For LSCEICGFECTQKGNLLRHIKL, the “log2 fold change of degron read counts” value is -1.59.

On to FSCNQCGHSFTQKGNLLRHIKL, for which the “log2 fold change of degron read counts” value was -0.601.

Consider FRCPVCGAAFTQKGNLLRHIKL, for which the “log2 fold change of degron read counts” value is -0.0733.

In the case of FLCSVCGHPFTQKGNLLRHIKL, the “log2 fold change of degron read counts” value stood at 0.254.

Regarding FTCNQCGAKFTQKGNLLRHIKL, the “log2 fold change of degron read counts” value was -0.833.

With FLCDVCGAFFTQKGNLLRHIKL, the “log2 fold change of degron read counts” value was -0.766.

Turning to FVCEICGRFFTQKGNLLRHIKL, the “log2 fold change of degron read counts” value is -1.44.

Take FQCPICGAQFTQKGNLLRHIKL: the “log2 fold change of degron read counts” value was -0.408.

For FCCNQCGHSFTQKGNLLRHIKL, the “log2 fold change of degron read counts” value was -0.639.

Take FLCDQCGAVFTQKGNLLRHIKL: the “log2 fold change of degron read counts” value was -1.32.

In the case of FFCEICGHYFTQKGNLLRHIKL, the “log2 fold change of degron read counts” value was determined as 0.114.

In the case of FFCPICGHIFTQKGNLLRHIKL, the “log2 fold change of degron read counts” value worked out at 0.496.

Regarding FVCEVCGACFTQKGNLLRHIKL, the “log2 fold change of degron read counts” value is -2.37.

Consider FDCPQCGAGFTQKGNLLRHIKL, for which the “log2 fold change of degron read counts” value is -1.38.

In the case of FFCNQCGAQFTQKGNLLRHIKL, the “log2 fold change of degron read counts” value was -0.161.

For the sequence FHCDQCGAKFTQKGNLLRHIKL, the “log2 fold change of degron read counts” value is -0.358.

As to FRCNVCGAPFTQKGNLLRHIKL, the “log2 fold change of degron read counts” value came out at 0.27.

In the case of FRCDQCGARFTQKGNLLRHIKL, the “log2 fold change of degron read counts” value is -1.29.

In the case of FRCEVCGAWFTQKGNLLRHIKL, the “log2 fold change of degron read counts” value is -0.117.

As for FECNQCGRKFTQKGNLLRHIKL, the “log2 fold change of degron read counts” value is -1.89.

For the sequence FCCNQCGRNFTQKGNLLRHIKL, the “log2 fold change of degron read counts” value amounted to 0.03.

With FMCNQCGATFTQKGNLLRHIKL, the “log2 fold change of degron read counts” value is -1.53.

As to FSCPICGANFTQKGNLLRHIKL, the “log2 fold change of degron read counts” value was -0.0366.

Turning to FACPVCGAMFTQKGNLLRHIKL, the “log2 fold change of degron read counts” value turned out to be 0.0162.
